Numbering of substitutions follows the chain as printed. Results are given in words; binding and its absence hold for the method and conditions named. For some assays here: In cells and extracts the contact can be indirect. Some binding calls cover weakened binding; strength is not graded here. For some assays here: Sequences can lack the tags named with a protein.
What was measured:
[1] = target: T1, GST-LASP1 S146A/Y171D (human) (UniProt Q14847); experiment: pull-down; direct binding: 1.5 nmol GST-LASP1, its domains or its phospho-mutants on glutathione-agarose beads with 100–200 ng of purified recombinant Ago2, 2 h at 4 °C, washed with lysis buffer; Western blot; both purified
T1 sequence: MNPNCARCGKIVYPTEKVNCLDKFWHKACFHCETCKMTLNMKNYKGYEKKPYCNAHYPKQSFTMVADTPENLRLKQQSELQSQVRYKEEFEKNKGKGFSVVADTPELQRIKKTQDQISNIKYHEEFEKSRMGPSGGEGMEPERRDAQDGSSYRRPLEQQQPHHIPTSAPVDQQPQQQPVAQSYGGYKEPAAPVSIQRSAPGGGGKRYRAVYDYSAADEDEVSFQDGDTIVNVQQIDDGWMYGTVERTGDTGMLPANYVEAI

Amino acid sequences for entries named in this document (tags omitted).
UniProt Q9UKV8: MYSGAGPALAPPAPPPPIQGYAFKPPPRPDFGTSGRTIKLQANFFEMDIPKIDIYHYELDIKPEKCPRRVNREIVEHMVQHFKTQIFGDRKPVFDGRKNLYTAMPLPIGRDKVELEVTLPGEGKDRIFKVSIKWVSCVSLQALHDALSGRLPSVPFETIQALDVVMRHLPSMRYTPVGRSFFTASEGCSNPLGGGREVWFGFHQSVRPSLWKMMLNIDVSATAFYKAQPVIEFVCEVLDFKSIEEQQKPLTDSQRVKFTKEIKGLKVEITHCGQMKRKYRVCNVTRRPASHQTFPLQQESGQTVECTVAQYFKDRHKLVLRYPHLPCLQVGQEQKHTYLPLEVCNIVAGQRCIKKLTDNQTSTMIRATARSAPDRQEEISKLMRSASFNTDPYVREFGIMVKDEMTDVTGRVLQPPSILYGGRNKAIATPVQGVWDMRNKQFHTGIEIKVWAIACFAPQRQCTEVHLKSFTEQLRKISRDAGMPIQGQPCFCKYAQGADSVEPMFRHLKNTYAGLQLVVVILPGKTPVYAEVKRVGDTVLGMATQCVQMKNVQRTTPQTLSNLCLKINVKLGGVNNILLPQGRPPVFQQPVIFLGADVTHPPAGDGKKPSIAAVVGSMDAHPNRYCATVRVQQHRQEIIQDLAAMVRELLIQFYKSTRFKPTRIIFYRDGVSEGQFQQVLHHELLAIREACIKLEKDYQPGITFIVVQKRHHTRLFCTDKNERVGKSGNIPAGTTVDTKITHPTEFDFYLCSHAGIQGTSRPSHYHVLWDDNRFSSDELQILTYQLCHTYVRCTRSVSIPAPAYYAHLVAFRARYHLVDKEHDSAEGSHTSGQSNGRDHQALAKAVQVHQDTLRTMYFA

[2] = target: T2, GST-LASP1 S146A/Y171F (human) (UniProt Q14847); experiment: as above
T2 sequence: T1 sequence with D171F

[3] = target: T3, GST-LASP1 S146D/Y171D (human) (UniProt Q14847); experiment: as above
T3 sequence: T1 sequence with A146D

[4] = target: T4, GST-LASP1 SH3 domain (residues 200–261) (human) (UniProt Q14847); experiment: as above
T4 sequence: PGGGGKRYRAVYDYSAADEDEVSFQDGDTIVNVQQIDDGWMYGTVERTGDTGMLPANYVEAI

GST-LASP1 Y171D (human) = target: T5, GST-LASP1 Y171D (human) (UniProt Q14847); experiment: as above
T5 sequence: T1 sequence with A146S

GST-LASP1 Y171F (human) = target: T6, GST-LASP1 Y171F (human) (UniProt Q14847); experiment: as above
T6 sequence: T1 sequence with A146S, D171F

[5] = target: T7, LIM and SH3 Protein 1 (LASP1), endogenous (human (endogenous in MDA-MB-231 variants 231S and Bone-Un)) (UniProt Q14847); experiment: proximity ligation; Duolink in situ, rabbit anti-Ago2 and mouse anti-LASP1, fixed Bone-Un cells; unstimulated, 20 nM CXCL12 for 30 min, or CXCL12 after 100 nM AMD3465
T7 sequence: T1 sequence with A146S, D171Y

GST-LASP1 S146A (human) = target: T8, GST-LASP1 S146A (human) (UniProt Q14847); experiment: pull-down; GST-LASP1 phospho-mutants on glutathione-agarose beads with 231S total lysate (Co-IP buffer; endogenous LASP1 present); Western blot for Ago2; only the target purified
T8 sequence: T1 sequence with D171Y

Measured: binding

purified recombinant Ago2 (from UniProt Q9UKV8 1-859)
not listed: [5] | GST-LASP1 S146A (human)
binds: all other assays above

argonaute 2 (Ago2), endogenous (from UniProt Q9UKV8 1-859)
binds: [5] | GST-LASP1 S146A (human)

— article PMC7564666
